From the supplement of paper PMC5499739
Over roughly 16,000 sequences, “Z-score” has its median near -0.37; the highest 2% begin near 3.2. The list shows a part of the results.

What follows are sequences tested on RBM10 RRM1-ZnF (GST-tagged construct) (assay: RNAcompete 7-mer binding Z-score; higher = stronger binding preference).
Method in brief: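 Bound RNA was identified by microarray hybridisation after GST-tagged RBM10 constructs (20 pmol) had been mixed with 1.5 nmol of a designed pool of 241 399 RNAs up to 41 nt, transcribed from microarray-derived DNA templates. Binding ran for 30 min at 4°C in 1 ml Hepes pH 7.8 buffer with KCl, NaCl, glycerol, DTT, BSA and glutathione Sepharose beads, with four 2-min washes at 4°C afterwards. For every heptamer motif, a one-sided Z-score for enrichment was computed across the probes that contained it.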
ACGCUGC was tested, and the “RNAcompete 7-mer binding Z-score” value was -0.412.
CCAACCA was tested, and the “RNAcompete 7-mer binding Z-score” value was -0.672.
For GGUGGUG, the “RNAcompete 7-mer binding Z-score” value was 3.56.
For UCCUAUA, the “RNAcompete 7-mer binding Z-score” value was -0.727.
CUGCUCU was tested, and the “RNAcompete 7-mer binding Z-score” value was -0.798.
CCAUUGC was tested, and the “RNAcompete 7-mer binding Z-score” value was -0.818.
For UGUCGCA, the “RNAcompete 7-mer binding Z-score” value was -0.5.
For ACUGGAG, the “RNAcompete 7-mer binding Z-score” value was 1.2.
In the case of CUACGAG, the “RNAcompete 7-mer binding Z-score” value is reported as -0.383.
For GUUCUCA, the “RNAcompete 7-mer binding Z-score” value was -0.561.
With UUUCGGU the “RNAcompete 7-mer binding Z-score” value was -0.162.
With CUCAUCA the “RNAcompete 7-mer binding Z-score” value was -0.737.
UAUUAAU was tested, and the “RNAcompete 7-mer binding Z-score” value was -0.496.
For AGGAACG, the “RNAcompete 7-mer binding Z-score” value was 1.28.
UAGAUUA was tested, and the “RNAcompete 7-mer binding Z-score” value was -0.318.
GGCUGGA was tested, and the “RNAcompete 7-mer binding Z-score” value was 0.969.
With CGUCCUU the “RNAcompete 7-mer binding Z-score” value was -0.772.
With GAUGUUC the “RNAcompete 7-mer binding Z-score” value was -0.704.
AAGUUAG was tested, and the “RNAcompete 7-mer binding Z-score” value was 0.469.
For GGCGCAG, the “RNAcompete 7-mer binding Z-score” value was 1.23.
In the case of GCACAUC, the “RNAcompete 7-mer binding Z-score” value is reported as -0.451.
AAGGAAC was tested, and the “RNAcompete 7-mer binding Z-score” value was 2.26.
GUGCUUU was tested, and the “RNAcompete 7-mer binding Z-score” value was -0.558.
In the case of AGUCUUA, the “RNAcompete 7-mer binding Z-score” value is reported as -0.753.
For AGGUGGC, the “RNAcompete 7-mer binding Z-score” value was 1.44.
UUACGCA was tested, and the “RNAcompete 7-mer binding Z-score” value was -0.584.
For AUUCCAU, the “RNAcompete 7-mer binding Z-score” value was -0.73.
For CGCGGCU, the “RNAcompete 7-mer binding Z-score” value was -0.139.
UGAGCGG was tested, and the “RNAcompete 7-mer binding Z-score” value was 2.38.
With UGAGCUU the “RNAcompete 7-mer binding Z-score” value was -0.451.
With UAUAUGA the “RNAcompete 7-mer binding Z-score” value was -0.337.
For UUUCAAU, the “RNAcompete 7-mer binding Z-score” value was -0.73.
With CCACGCC the “RNAcompete 7-mer binding Z-score” value was -0.519.
In the case of GUUAACC, the “RNAcompete 7-mer binding Z-score” value is reported as -0.383.
GGCAGCG was tested, and the “RNAcompete 7-mer binding Z-score” value was 1.25.
In the case of CCGUCAC, the “RNAcompete 7-mer binding Z-score” value is reported as -0.746.
In the case of CGCCCGC, the “RNAcompete 7-mer binding Z-score” value is reported as -0.431.
For GUACAAU, the “RNAcompete 7-mer binding Z-score” value was -0.126.
In the case of UCUAGCC, the “RNAcompete 7-mer binding Z-score” value is reported as -0.789.
GCUUGGU was tested, and the “RNAcompete 7-mer binding Z-score” value was 0.0885.
UAGAACG was tested, and the “RNAcompete 7-mer binding Z-score” value was 0.03.
In the case of CGCAUGC, the “RNAcompete 7-mer binding Z-score” value is reported as -0.402.
In the case of GUGAGUC, the “RNAcompete 7-mer binding Z-score” value is reported as 0.27.
With AACGGAG the “RNAcompete 7-mer binding Z-score” value was 1.94.
For CAAGAGG, the “RNAcompete 7-mer binding Z-score” value was 0.914.
In the case of CCAUACC, the “RNAcompete 7-mer binding Z-score” value is reported as -0.792.
For CUUUGAC, the “RNAcompete 7-mer binding Z-score” value was -0.867.
For ACACAGU, the “RNAcompete 7-mer binding Z-score” value was -0.311.
In the case of AUGAUUC, the “RNAcompete 7-mer binding Z-score” value is reported as -0.552.
With AAAACAA the “RNAcompete 7-mer binding Z-score” value was -0.0902.
In the case of UGAAACA, the “RNAcompete 7-mer binding Z-score” value is reported as -0.298.
With UAGCUGA the “RNAcompete 7-mer binding Z-score” value was 0.0528.
In the case of CCGGCAA, the “RNAcompete 7-mer binding Z-score” value is reported as -0.548.
In the case of AUAAACC, the “RNAcompete 7-mer binding Z-score” value is reported as -0.597.
In the case of AUGCCCA, the “RNAcompete 7-mer binding Z-score” value is reported as -0.535.
GGCUAUA was tested, and the “RNAcompete 7-mer binding Z-score” value was 0.0105.
GGGGACU was tested, and the “RNAcompete 7-mer binding Z-score” value was 2.
CGUGCCA was tested, and the “RNAcompete 7-mer binding Z-score” value was -0.418.
With UCCACCA the “RNAcompete 7-mer binding Z-score” value was -0.672.
With GUCCUUG the “RNAcompete 7-mer binding Z-score” value was -0.483.
With CUACAAG the “RNAcompete 7-mer binding Z-score” value was -0.483.
In the case of AGACCAU, the “RNAcompete 7-mer binding Z-score” value is reported as -1.03.
With AACAGGC the “RNAcompete 7-mer binding Z-score” value was 0.797.
In the case of GCGGGAC, the “RNAcompete 7-mer binding Z-score” value is reported as 1.51.
UCGAUUA was tested, and the “RNAcompete 7-mer binding Z-score” value was -0.578.
In the case of GUUUGUC, the “RNAcompete 7-mer binding Z-score” value is reported as -0.168.
CCCCGAG was tested, and the “RNAcompete 7-mer binding Z-score” value was -0.0155.
With GACUGUU the “RNAcompete 7-mer binding Z-score” value was -0.678.
For GUUGAGC, the “RNAcompete 7-mer binding Z-score” value was 0.706.
In the case of CACGGUG, the “RNAcompete 7-mer binding Z-score” value is reported as 0.397.
GUCAUCC was tested, and the “RNAcompete 7-mer binding Z-score” value was -0.672.
In the case of UUGGUAG, the “RNAcompete 7-mer binding Z-score” value is reported as 1.74.
In the case of CGGCCCC, the “RNAcompete 7-mer binding Z-score” value is reported as -0.441.
In the case of CGCAUGG, the “RNAcompete 7-mer binding Z-score” value is reported as 0.543.
In the case of GAUUUGA, the “RNAcompete 7-mer binding Z-score” value is reported as -0.0155.
In the case of GAUCGAG, the “RNAcompete 7-mer binding Z-score” value is reported as 0.41.
GGUAGGU was tested, and the “RNAcompete 7-mer binding Z-score” value was 3.31.
In the case of ACUUGAU, the “RNAcompete 7-mer binding Z-score” value is reported as -0.529.
For AAACGCG, the “RNAcompete 7-mer binding Z-score” value was -0.197.
In the case of CAUAACA, the “RNAcompete 7-mer binding Z-score” value is reported as -0.444.
With CCGGAUC the “RNAcompete 7-mer binding Z-score” value was -0.405.
GUCGUGU was tested, and the “RNAcompete 7-mer binding Z-score” value was -0.0382.
With CAUUGAU the “RNAcompete 7-mer binding Z-score” value was -0.464.
CGUCCAU was tested, and the “RNAcompete 7-mer binding Z-score” value was -0.639.
AGGCAAC was tested, and the “RNAcompete 7-mer binding Z-score” value was -0.0479.
ACCACUA was tested, and the “RNAcompete 7-mer binding Z-score” value was -0.646.
AACAAGA was tested, and the “RNAcompete 7-mer binding Z-score” value was 0.0918.
With CCCUGGU the “RNAcompete 7-mer binding Z-score” value was -0.337.
In the case of CAGCUAC, the “RNAcompete 7-mer binding Z-score” value is reported as -0.509.
With UGAGCUA the “RNAcompete 7-mer binding Z-score” value was -0.00896.
CGAGAGG was tested, and the “RNAcompete 7-mer binding Z-score” value was 1.25.
With UAAUCAG the “RNAcompete 7-mer binding Z-score” value was -0.207.
GUAUACU was tested, and the “RNAcompete 7-mer binding Z-score” value was -0.519.
CACGCGA was tested, and the “RNAcompete 7-mer binding Z-score” value was -0.373.
With GCAACUU the “RNAcompete 7-mer binding Z-score” value was -0.483.
For GGUCUCG, the “RNAcompete 7-mer binding Z-score” value was 0.163.
UGGAUAA was tested, and the “RNAcompete 7-mer binding Z-score” value was 1.15.
In the case of GCGGGGA, the “RNAcompete 7-mer binding Z-score” value is reported as 3.67.
With GCACGUC the “RNAcompete 7-mer binding Z-score” value was -0.379.
In the case of ACAAGCG, the “RNAcompete 7-mer binding Z-score” value is reported as 0.137.
For CCAUUUG, the “RNAcompete 7-mer binding Z-score” value was -1.
For CCGGGCA, the “RNAcompete 7-mer binding Z-score” value was -0.0707.
For AUGACCA, the “RNAcompete 7-mer binding Z-score” value was -0.402.
UGGUUCG was tested, and the “RNAcompete 7-mer binding Z-score” value was 0.231.
In the case of AAUCACA, the “RNAcompete 7-mer binding Z-score” value is reported as -0.496.
AUUGAGA was tested, and the “RNAcompete 7-mer binding Z-score” value was 0.0625.
With CACAGUG the “RNAcompete 7-mer binding Z-score” value was -0.00571.
For UAGCUGU, the “RNAcompete 7-mer binding Z-score” value was -0.578.
UGCUCCU was tested, and the “RNAcompete 7-mer binding Z-score” value was -0.73.
For GUGUUUG, the “RNAcompete 7-mer binding Z-score” value was 0.774.
For CUGAGAU, the “RNAcompete 7-mer binding Z-score” value was -0.36.
CGCCUCA was tested, and the “RNAcompete 7-mer binding Z-score” value was -0.662.
With AACUUGG the “RNAcompete 7-mer binding Z-score” value was 0.124.
In the case of GCAACUA, the “RNAcompete 7-mer binding Z-score” value is reported as -0.376.
For ACGUUUC, the “RNAcompete 7-mer binding Z-score” value was -0.837.
In the case of CUUACAG, the “RNAcompete 7-mer binding Z-score” value is reported as -0.6.
For CGCGUCA, the “RNAcompete 7-mer binding Z-score” value was -0.298.
